# ± gives the standard deviation. This is a selection; strong and weak results do not stand in their true shares.
# Test system: MIWI (PIWIL1) piRISC loaded with L1MC piRNA (30 nt)
# Test: pre-steady-state target cleavage rate (min^-1); MIWI and MILI are mouse PIWI proteins and EfPiwi is from a freshwater sponge; tags in brackets are library labels; higher = faster piRNA-guided slicing of the target
# Conditions: guide: L1MC piRNA 5'p-UAACUAAAUACUAUGCAAGCUGUAGGUCCU; auxiliary factor: 500 nM mouse GTSF1
# Method in brief: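 Cleave-'n-Seq: 1 nM active affinity-purified piRISC with one synthetic guide and 0.1 nM transcribed, DNA-blocked target RNA library were mixed, with or without 500 nM GTSF1 partner protein, in HEPES–potassium acetate buffer at 33 °C for 0–8 or 0–960 min. Uncleaved targets were sequenced and normalised to depth and to weakly complementary targets, three trials were pooled, and k3 was capped at 0.0001 min^-1. The pre-steady-state cleavage rate was fitted […].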
row,Sequence,pre-steady-state target cleavage rate
1,UCCUGGAUGUGCAUGCUUAGUAUUUAGUUA,0.0054 ± 0.0048
2,UCGACCUACAGCUUGCAUAGUAUAAACAAA,0.362 ± 0.051
3,UCCUCCUACAGGUUCCAUAGUAUUUAGUUA,0.165 ± 0.046
4,UCCUGGAUGAGCUUGCAUAGUAUAUAGAAA,0.0154 ± 0.0069
5,UCCUGGUACAGCUUGGUUAGUAUUUACAAA,0.0315 ± 0.013
6,UCCUGCUACAGCUACCAUAGUAUUUAGUUA,0.337 ± 0.032
7,UGGACCUACAGCUUCCUUAGUAUUUAGUUA,0.412 ± 0.033
8,UCGACCUACAGCUUGCAUAGUAUUUGUUA,0.505 ± 0.042
9,UGGACCUACAGCUAGCAUAGUAUUUUCAAA,0.239 ± 0.038
10,UCCUGCUACAGCUUGCUAUGUAUUUAGUAA,0.122 ± 0.03
11,UCCACCUACAGCUUGCAAUAGUAUUUAGUUA,0.166 ± 0.035
12,UCCUGGAUGUCGUUGCAUCGUAUUUAGUUA,0.00332 ± 0.003
13,UCCUGGAUGUCCUUCAUAGUAUUUAGUUA,0.0109 ± 0.0036

# Same assay, conditions: guide: L1MC piRNA 5'p-UAACUAAAUACUAUGCAAGCUGUAGGUCCU; auxiliary factor: none (no GTSF1)
row,Sequence,pre-steady-state target cleavage rate
1,UCCUGGAUGUCGAACGUAAGAAUUUAGAUA,< 0.0001
2,AGGUCCUUCAGCUUGCAUAGUAUUUAGUUA,0.0947 ± 0.018
3,UCCUGGAUGUCGAACGUAUCUAUUUAUUA,< 0.0001
